The record followed here is publication PMC4336329 (PLoS ONE, 2015).

Hit rate of the full screen: of about 310,000 compounds, about 2,200 (0.71%) showed an effect of 50% or more. Effects have a minus sign here. Some of the results follow.

For the assay, the target named is human ether-à-go-go-related gene (hERG) potassium channel (human, UniProt Q12809). As to the kind of experiment: primary screen, population patch clamp on CHO cells stably expressing hERG.
Chain of human ether-à-go-go-related gene (hERG) potassium channel (Q12809 whole entry, looked up): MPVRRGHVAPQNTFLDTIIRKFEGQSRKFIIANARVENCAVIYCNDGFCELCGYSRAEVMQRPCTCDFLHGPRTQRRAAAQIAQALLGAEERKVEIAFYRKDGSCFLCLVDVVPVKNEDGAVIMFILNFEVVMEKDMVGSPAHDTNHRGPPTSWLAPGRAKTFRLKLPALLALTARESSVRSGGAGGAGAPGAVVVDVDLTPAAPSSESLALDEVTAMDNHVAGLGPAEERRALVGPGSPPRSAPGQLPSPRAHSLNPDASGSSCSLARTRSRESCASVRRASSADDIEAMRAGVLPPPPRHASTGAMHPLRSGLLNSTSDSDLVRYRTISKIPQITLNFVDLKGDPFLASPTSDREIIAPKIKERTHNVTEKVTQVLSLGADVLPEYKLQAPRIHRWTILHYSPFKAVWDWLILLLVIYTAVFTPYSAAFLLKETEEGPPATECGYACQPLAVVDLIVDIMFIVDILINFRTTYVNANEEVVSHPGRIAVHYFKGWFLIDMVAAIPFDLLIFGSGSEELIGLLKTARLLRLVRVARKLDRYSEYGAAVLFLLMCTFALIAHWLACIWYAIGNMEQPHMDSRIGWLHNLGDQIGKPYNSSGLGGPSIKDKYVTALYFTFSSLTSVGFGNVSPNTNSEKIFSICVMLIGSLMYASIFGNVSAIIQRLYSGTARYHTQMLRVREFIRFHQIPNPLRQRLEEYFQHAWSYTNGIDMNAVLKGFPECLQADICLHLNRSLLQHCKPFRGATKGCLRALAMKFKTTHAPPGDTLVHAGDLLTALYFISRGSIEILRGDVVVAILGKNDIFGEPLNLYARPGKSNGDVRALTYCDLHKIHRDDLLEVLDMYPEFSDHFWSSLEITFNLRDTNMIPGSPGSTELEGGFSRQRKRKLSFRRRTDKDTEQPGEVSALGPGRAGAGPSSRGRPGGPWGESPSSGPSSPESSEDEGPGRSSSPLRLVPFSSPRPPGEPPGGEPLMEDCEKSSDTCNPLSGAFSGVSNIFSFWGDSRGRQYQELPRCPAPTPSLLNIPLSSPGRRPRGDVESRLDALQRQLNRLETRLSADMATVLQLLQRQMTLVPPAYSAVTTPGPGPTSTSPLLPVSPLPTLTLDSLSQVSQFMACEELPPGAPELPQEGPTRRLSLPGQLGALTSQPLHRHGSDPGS
With `Cc1ccsc1/C=N/NC(=O)c1ccc(Cn2cc(Br)cn2)o1`, the “hERG current change (%, negative = inhibition) at 1uM” value is recorded as 1.2%.
The figure for `Cc1cccc(-c2nnc(SCC#N)n2-c2ccccc2)c1` is -12.1%.
The figure for `CCCCCc1nnc(NC(=O)c2ccc(N3CCCC3=O)cc2)s1` is 14.3%.
As to `O=C(NNC(=O)c1ccccc1Cl)c1ccccc1Cl`, the “hERG current change (%, negative = inhibition) at 1uM” value worked out at 10%.
The figure for `CC1CCCCC1NC(=O)COC(=O)c1ccc2ncsc2c1` (stereo not shown) is 11.4%; for `Cc1csc2ncnc(NNC(=O)c3ccc(Cl)cc3)c12` it is 6.19%; for `CSc1ccc(S(=O)(=O)NCC(=O)OCC(=O)NCCc2ccccc2)cc1[N+](=O)[O-]` it is 20%.
In the case of `O=C(CCc1ccccc1)NNC(=O)C12CC3CC(CC(C3)C1)C2`, the “hERG current change (%, negative = inhibition) at 1uM” value was -7.42%.
The figure for `CSc1ccccc1C(=O)OCC(=O)NC1CCS(=O)(=O)C1` (stereo not shown) is 5.16%; for `CCN(CC(=O)Nc1ccc(OC)cc1)C(=O)Cc1cccs1` it is 10%; for `CCC12CN3CCN(CC(C3)/C1=N/NC(N)=O)C2` it is 16.4%.
Take `Cn1ncc(Cl)c1C(=O)NC1C2CC3CC(C2)CC1C3` (stereo not shown): the “hERG current change (%, negative = inhibition) at 1uM” value is given as 9.35%.
To `CC(NC(=O)C(C)(C)C)c1nc2ccccc2n1C` (stereo not shown) belongs 11.7%; to `CC(C)CN(C(=O)COC(=O)CCCc1nc2ccccc2s1)c1c(N)n(Cc2ccccc2)c(=O)[nH]c1=O`, 3.55%.
Take `Oc1c(C=Nc2ccccc2Cl)[nH]c2ccccc12`: the “hERG current change (%, negative = inhibition) at 1uM” value turned out to be 12.6%.
To `Cc1c(C(=O)OCC(=O)NCc2ccc3c(c2)OCO3)cccc1[N+](=O)[O-]` belongs 1.66%.
As for `CCc1ccc(NC(=O)CCCN2C(=S)NC(C)(C)CC2C)cc1` (stereo not shown), the “hERG current change (%, negative = inhibition) at 1uM” value is 2.1%.
For the compound `CC(C)(C)OC(=O)NCCCC[C@H](NC(=O)c1nc[nH]c1C(=O)NC1CCN(C(=O)OC(C)(C)C)CC1)C(=O)OC(C)(C)C`, the “hERG current change (%, negative = inhibition) at 1uM” value was 12.8%.
As to `Cc1nc(-c2ccc(NS(=O)(=O)c3ccccc3)cc2)cs1`, the “hERG current change (%, negative = inhibition) at 1uM” value turned out to be 9.38%.
To `CCn1c(CNC(=O)C23CC4CC(CC(C4)C2)C3)nnc1SC` belongs 12.6%; to `CCCC(=O)Nc1ccccc1NC(=O)CN(C)S(=O)(=O)c1ccccc1`, 9.94%; to `O=S(=O)(c1ccccc1)n1ccc2ccccc21`, 1.75%.
To `CC(=O)c1ccc(-n2nnnc2SCC(=O)Nc2cccc(NC(=O)c3ccco3)c2)cc1` belongs 8.93%; to `Cc1ccc(-n2nc3c(=O)n(C(C)C(=O)NCc4ccc5c(c4)OCO5)nc(C)c3c2C)cc1` (stereo not shown), 18.8%; to `O=C1/C(=C/c2ccc(N3CCCC3)cc2)NC(=S)N1C1CC1`, 0.0667%.
To `COc1ccc(/C=C/C(=O)OCC(=O)NCCNC(=O)COC(=O)/C=C/c2ccc(OC)cc2)cc1` belongs 21.1%.
As for `O=C(O)Cn1cc(/C=C2\C(=O)NC(=O)N(c3ccc(Cl)cc3)C2=O)c2ccccc21`, the “hERG current change (%, negative = inhibition) at 1uM” value is reported as 14.7%.
The figure for `CC(C)(C)OC(=O)CNC(=O)c1[nH]cnc1C(=O)N[C@@H](Cc1ccccc1)C(=O)OCc1ccccc1` is 8.27%; for `CCOC(=O)/C=C1\NC(=O)CS1` it is 17.1%; for `O=C(CCNS(=O)(=O)c1ccc(Cl)cc1)Nc1ccncc1` it is 15.3%.
The figure for `COc1cccc(C2CC(c3cccs3)=NN2C(=O)CSc2nc3c(cnn3-c3ccc(F)cc3)c(=O)[nH]2)c1OC` (stereo not shown) is 9.39%; for `O=C(c1ccc(N2CCCC2=O)cc1)N1CCCCCC1` it is 11.1%.
For `Cc1ccc(-n2nnnc2SCC(=O)Nc2ncc(Cc3ccccc3Cl)s2)cc1`, the “hERG current change (%, negative = inhibition) at 1uM” value is on record as -3.4%.
To `O=C(c1cnn(Cc2ccccc2)c1)N1CCN(S(=O)(=O)/C=C/c2ccccc2)CC1` belongs -2.7%; to `CCN(CC)c1ccc(/C=N/NC(=O)c2ccoc2C)c(O)c1`, 11.7%; to `Cc1onc(-c2c(F)cccc2Cl)c1C(=O)NCc1ccc2c(c1)OCO2`, 14%.
As for `O=C(NCc1ccncc1)c1cn(-c2ccccc2)nc1-c1cccnc1`, the “hERG current change (%, negative = inhibition) at 1uM” value is listed as -16.6%.
To `COc1ccc(C2CC(=O)N(CCC[NH+](C)CCc3ccc(OC)c(OC)c3)C2)cc1.O=C([O-])C(=O)[O-]` (stereo not shown) belongs -72.9%; to `Cc1nnc(N(C)C(=O)c2cccnc2)s1`, 11.7%; to `COc1cccc(C(=O)NC(=S)NCc2ccco2)c1`, 9.85%.
The figure for `CC1CCN(CCCCOc2ccc([N+](=O)[O-])cc2)CC1` is -77.8%; for `O=C(O)CN1C(=O)C2C3CC(C2C1=O)C1C(c2ccc(F)cc2)c2sc(=O)[nH]c2SC31` (stereo not shown) it is 1.95%.
To `NC(=O)CSc1cn(Cc2cccc(F)c2)c2ccccc12` belongs 12.2%.
On to `CCN(CC)C(C(=O)Nc1ccc(C(C)C)cc1)c1ccc2c(c1)OCO2` (stereo not shown), for which the “hERG current change (%, negative = inhibition) at 1uM” value is 6.12%.
As to `COc1cc(OC)cc(C(=O)NCC2CCCN(Cc3ccc(SC)cc3)C2)c1` (stereo not shown), the “hERG current change (%, negative = inhibition) at 1uM” value is -34.6%.
The figure for `Cc1nc(C)c(-c2ccc(SCC(=O)Nc3cccc(Cl)c3)nn2)s1` is 8.55%; for `COc1ccc(-c2sc(NC(C)=O)nc2-c2ccccc2)cc1` it is 16.7%; for `Br.O=S(=O)(c1ccc(-c2csc(Nc3ccc(F)cc3)n2)cc1)N1CCCC1` it is 2.89%.
For `COc1ccc(-c2nc(C#N)c(NCCN(C)C)o2)cc1`, the “hERG current change (%, negative = inhibition) at 1uM” value came to 9.12%.
The figure for `Cc1cc(C(=O)N2CCC(C(F)(F)F)n3nccc32)on1` (stereo not shown) is 7%; for `CC(=O)Nc1ccc2c(c1)CN(c1cc(C)ccc1C)CO2` it is 1.45%; for `COc1ccc2cc(CN(CC3CCCO3)S(=O)(=O)c3ccc(C(C)=O)cc3)c(=O)[nH]c2c1` (stereo not shown) it is -6.74%.
With `CCOC(=O)C(C)Sc1cnccn1` (stereo not shown), the “hERG current change (%, negative = inhibition) at 1uM” value worked out at 14.3%.
Take `Cc1ccc(CNC(=O)C2CCCN(S(=O)(=O)c3ccc(-n4cnnn4)cc3)C2)cc1` (stereo not shown): the “hERG current change (%, negative = inhibition) at 1uM” value is 2.87%.
To `O=C1CN(C(=O)COC(=O)CCNS(=O)(=O)c2ccc(Cl)cc2)c2ccccc2N1` belongs -5.53%; to `O=C1CCC(=O)N1OCCCOc1ccc2c(c1)CCC2`, 10.8%; to `COC(=O)C1(C)NC(c2ccc(F)cc2)C2C(=O)N(c3ccc(C)cc3)C(=O)C21` (stereo not shown), 12.7%.
To `Cn1c(=O)c2c(ncn2CC(=O)OCC(=O)Nc2ccc(Cl)cc2)n(C)c1=O` belongs 6.83%.
The figure for `O=c1cc(CSc2nnc(C3CC3)n2Cc2ccccc2)nc2sccn12` is 10.6%; for `CCCOc1ccc(C(CC(=O)O)NC(=O)c2cccs2)cc1` (stereo not shown) it is 17.2%; for `CCc1nn(CC(=O)NCCN2CCN(C)CC2)c(=O)c2cc3c(OC)cccc3n12` it is 9.23%.
Consider `CC1=C(C(=O)Nc2ccc(C(=O)N3CCN(c4cccc(Cl)c4)CC3)cc2)SCCO1`, for which the “hERG current change (%, negative = inhibition) at 1uM” value is recorded as 5.5%.
Regarding `CC(=O)c1sc(NC(=O)c2cccs2)nc1C`, the “hERG current change (%, negative = inhibition) at 1uM” value is reported as 18.6%.
As to `Cc1ccc(Cn2nnnc2CN2CCC(n3nnc4ccccc43)CC2)cc1.Cl`, the “hERG current change (%, negative = inhibition) at 1uM” value is recorded as -14.7%.
To `O=S(=O)(c1cccc(NC(=S)N2CCN(c3ccc(F)cc3)CC2)c1)C(F)F` belongs 6.53%; to `CCCCn1c(=O)c(C(=O)Nc2ccccc2)c(O)c2ccccc21`, 10.9%; to `CCOc1ccccc1NC(=O)c1ccc(-n2cncn2)nc1`, 15.4%.
For `N#Cc1ccc(CN2CCN(C(=O)c3ccc(S(=O)(=O)NCc4ccco4)cc3)CC2)cc1`, the “hERG current change (%, negative = inhibition) at 1uM” value was -6.1%.
The figure for `O=C(CCS(=O)(=O)c1cccs1)Nc1ccc(C(=O)NCc2ccc(F)cc2)cc1` is 17.9%; for `Cc1ccccc1-n1c(SCC(=O)c2c(N)n(C3CC3)c(=O)[nH]c2=O)nnc1N1CCOCC1` it is 2.27%.
As for `CCOc1ccccc1OCC(=O)NCCc1ccc(S(N)(=O)=O)cc1`, the “hERG current change (%, negative = inhibition) at 1uM” value is 12.1%.
The figure for `COC(=O)c1cc(S(=O)(=O)NCC(C)c2ccccc2)cn1C` (stereo not shown) is 3.17%.
As to `Cc1ccc(N2C(=O)c3oc4ccccc4c(=O)c3C2c2cccc(O)c2)nc1` (stereo not shown), the “hERG current change (%, negative = inhibition) at 1uM” value came to 2.95%.
Take `C[C@@H]1NC(=O)OC1c1ccco1` (stereo partly shown): the “hERG current change (%, negative = inhibition) at 1uM” value was 8.5%.
To `CCOC(=O)Cc1nnc(NC(=O)CSc2nnc3c(n2)[nH]c2ccccc23)s1` belongs 7.2%.
To `Cc1nsc(N)c1C(=O)O` belongs 14.2%.
Turning to `Cc1ccc(CC(=S)N2CCOCC2)cc1`, the “hERG current change (%, negative = inhibition) at 1uM” value is 11.6%.
The figure for `CSCCC(NC(=O)C1CCCC1)c1nnc2ccccn12` (stereo not shown) is 13.1%; for `Cc1c(-c2cc(C(=O)O)on2)cnn1C` it is 10.8%; for `CCSc1nnc(NC(=O)c2csc3c2CCCC3)s1` it is 7.57%.
With `CN(C)S(=O)(=O)c1ccc(Cl)c(NC(=O)c2ccncc2)c1`, the “hERG current change (%, negative = inhibition) at 1uM” value is -0.0585%.
As to `Cn1c(=O)c2cc(S(=O)(=O)NC(C(=O)NCc3cccnc3)c3ccccc3)ccc2n(C)c1=O` (stereo not shown), the “hERG current change (%, negative = inhibition) at 1uM” value came to 6.03%.
To `COc1ccc2oc(-c3cccc(NC(=O)CSc4ccc(Cl)cc4)c3)nc2c1` belongs 6.7%; to `CC(OC(=O)CC1CC2CCC1C2)C(=O)Nc1ccc(C(N)=O)cc1` (stereo not shown), 3.24%.
On to `Cc1ccsc1C(=O)C1CCCN(Cc2cnn(C)c2)C1` (stereo not shown), for which the “hERG current change (%, negative = inhibition) at 1uM” value turned out to be 16.1%.
On to `CC(OC(=O)c1ncc(Cl)c(Cl)c1Cl)C(=O)NC1(C#N)CCCCC1` (stereo not shown), for which the “hERG current change (%, negative = inhibition) at 1uM” value is given as 9.61%.
The figure for `CS(=O)(=O)n1nc(OC(=O)c2cccs2)cc1N` is 17.6%.
On to `COc1ccc(OC)c(S(=O)(=O)Nc2c(C)cccc2C)c1`, for which the “hERG current change (%, negative = inhibition) at 1uM” value was 8.89%.
